In a collection of fitness landscapes (doi:10.1016/j.celrep.2020.107928):
Whole data set: some 81,000 sequences, median “one-hybrid fitness for binding NBS DNA” near -0.1, cut for the highest 2% near 0.36. The list shows a part of the results.

B1: Caulobacter ParB omega fusion; a variant is named by its letters at X, in order, B8GW30 (parent)
chain: MESVVVGEPGMSEGRRGLGRGLSALLGEVDAAPAQAPGEQLGGSREAPIEILQRNPDQPRRTFREEDLEDLSNSIREKGVLQPILVRPSPDTAGEYQIVAGERAWRAAQRAGLKTVPIMVRELDDLAVLEIGIIENVQRADLNVLEEALSYKVLMEKFERTQENIAQTIGKSXSHVANXMRLLXLPDEVQSYLVSGELTAXHARAIAAAADPVALAKQIIEGGLSVRETEALARKAPNLSAGKSKGGRPPRVKDTDTQALESDLSSVLGLDVSIDHRGSTGTLTITYATLEQLDDLCNRLTRGI

Variants of: B1
Test: one-hybrid fitness for binding NBS DNA (the Noc-binding site; scaled: cognate 1, non-cognate 0); higher = stronger binding
Conditions: with NBS DNA site
Method in brief: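 Pre- and post-selection plasmids were Illumina-sequenced, three replicate libraries were pooled, and any variant with under 10 reads was removed. The libraries were Caulobacter ParB with four specificity codons randomised, selected in E. coli USO through a HIS3 reporter whose site is 19 bp from the promoter. Cells grew 48 hours at 37°C on M9 without histidine, with 0.1 mM IPTG and 5 mM 3-AT. Fitness is the log change in variant-to-wild-type read ratio, rescaled against cognate and non-cognate.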

one-hybrid fitness for binding NBS DNA, 0.302:
QSMS

one-hybrid fitness for binding NBS DNA, ≤ 0.2:
PYCS
YTLE
QAIC
YWVG
RPYR
HPIL
TLEA
STRC
VVFV
SISF
PVIC
DLQR
THMR
NDMC
PKKW
DPFS
VVRG
PKRL
WVAS
SSKT
KYMR
NAHA
IKYG
TSLY
NFEL
QIKW
RFNM
VHET
AVSY
RPNE
NNCW
GWCS
NQAE
GYCD
RLWF
QHSG
SANL
YNCR
AANT
GHCH
KILI
DSSF
ALFF
WEAS
QLFV
ACAI
LFMR
RDKP
SEQD
AFTG
IPPA
TTNR
RCND
KRYP
YPSS
MHHG
QSGM
SDQI
ATQT
WLKS
YYTF
QNTH
HARH
EPSA
DYNV
WFCT
SRGF
GQYS
QGHI
TASV
PLNE
LDLF
ARRE
YTRT
REMT
CRLC
HVMR
HPKN
AQAG
TEDG
TIYI
VFTS
KIDS
IRPL
QPYH
DPGT
VVLD
NSAG
TSHQ
HNAC
LFSL
PRFM
SHIR
RQVV
PLQP
WINM
RQFM
LSRY
CENR
NWDR
LGSP
AAML
RSHP
NPWL
RPMI
MNDR
SRIT
RVCY
PYTK
YRKF
AQRD
AELT
NDMH
QPSF
HESA
YRFR
VLKI
AYCT
PFDY
CLNR
HTDG
VWKY
WHGC
GPCG
HVDG
AEGR
FTQG
NLAV
TAHM
VAGD
CAGC
IRGH
RDTR
NYSD
WWER
WTTL
SVCD
PYES
NISS
YRGT
HATV
TVAM
IVAL
VHSL

one-hybrid fitness for binding NBS DNA, 0.567:
QQLR

one-hybrid fitness for binding NBS DNA, 0.404:
QRKP

one-hybrid fitness for binding NBS DNA, 0.39:
RVSS

one-hybrid fitness for binding NBS DNA, 0.241:
LCRR

one-hybrid fitness for binding NBS DNA, 0.246:
QTGC

one-hybrid fitness for binding NBS DNA, 0.234:
RCAA

one-hybrid fitness for binding NBS DNA, 0.201:
RTNQ

one-hybrid fitness for binding NBS DNA, 0.315:
KCRT
